In PubChem BioAssay AID504332 (National Center for Advancing Translational Sciences (NCATS), 2011):
In all, about 350,000 compounds went through this assay and about 31,000 (8.9%) were called active. The inconclusive results got no clear call from the source; some entries with a clear call stand among them for comparison. The call rests on the fitted dose curve; in most records, active means well fitted inhibition curve with a large enough effect; inconclusive means small, poorly fitted or top-dose-only effect; inactive means no such curve, though single readings can be large or run the other way. Where the call is inconclusive, the potency comes from a doubtful curve fit.

Molecular target: Histone-lysine N-methyltransferase EHMT2 (Homo sapiens) (UniProt Q96KQ7)
Sequence of UniProt Q96KQ7 (Q96KQ7 whole entry, looked up): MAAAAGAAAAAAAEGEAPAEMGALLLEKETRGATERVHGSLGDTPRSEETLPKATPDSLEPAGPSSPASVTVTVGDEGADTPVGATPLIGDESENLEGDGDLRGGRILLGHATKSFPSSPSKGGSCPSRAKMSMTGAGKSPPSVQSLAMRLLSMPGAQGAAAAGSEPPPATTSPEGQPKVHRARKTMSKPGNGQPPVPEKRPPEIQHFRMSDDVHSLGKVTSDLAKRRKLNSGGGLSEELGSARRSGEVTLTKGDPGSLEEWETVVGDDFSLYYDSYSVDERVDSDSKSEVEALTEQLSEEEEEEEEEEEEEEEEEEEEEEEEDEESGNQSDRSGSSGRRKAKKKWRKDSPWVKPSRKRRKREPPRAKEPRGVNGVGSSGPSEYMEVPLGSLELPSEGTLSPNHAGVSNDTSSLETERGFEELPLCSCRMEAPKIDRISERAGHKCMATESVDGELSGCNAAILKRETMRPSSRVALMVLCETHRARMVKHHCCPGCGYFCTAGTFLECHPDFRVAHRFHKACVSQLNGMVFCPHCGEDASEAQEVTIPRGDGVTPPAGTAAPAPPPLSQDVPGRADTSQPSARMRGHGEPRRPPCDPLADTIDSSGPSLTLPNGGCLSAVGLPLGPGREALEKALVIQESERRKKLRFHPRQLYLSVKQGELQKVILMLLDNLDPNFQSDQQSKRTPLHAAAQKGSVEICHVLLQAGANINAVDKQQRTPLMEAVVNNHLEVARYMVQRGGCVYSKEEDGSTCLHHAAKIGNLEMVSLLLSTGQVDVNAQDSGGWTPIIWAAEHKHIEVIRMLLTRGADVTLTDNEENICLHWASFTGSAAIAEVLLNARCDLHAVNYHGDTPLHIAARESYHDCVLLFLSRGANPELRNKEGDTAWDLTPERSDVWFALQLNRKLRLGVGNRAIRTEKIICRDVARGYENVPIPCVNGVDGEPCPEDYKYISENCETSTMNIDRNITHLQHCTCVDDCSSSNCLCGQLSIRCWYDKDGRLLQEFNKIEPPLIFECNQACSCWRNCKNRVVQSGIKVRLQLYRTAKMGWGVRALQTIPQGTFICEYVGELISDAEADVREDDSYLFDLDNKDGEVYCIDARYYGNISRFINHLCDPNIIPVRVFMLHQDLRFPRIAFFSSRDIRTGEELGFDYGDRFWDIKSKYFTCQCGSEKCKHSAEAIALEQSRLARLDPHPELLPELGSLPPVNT
Experiment: qHTS Assay for Inhibitors of Histone Lysine Methyltransferase G9a; further: nearly all actives have a fitted effect of over 75% in size
Conditions: G9a H3K9 monomethylation, AlphaScreen, 2 h; activity, negative = inhibition: at 59 µM (top of the series) unless noted
Outline: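 G9a (20 nM) preincubated 15 min RT with compounds, then 500 nM biotinylated H3K9 peptide and 20 uM SAM added; 2 h RT reaction. Monomethyl-H3K9 product detected by AlphaScreen with anti-H3K9me1 antibody, streptavidin donor and anti-rabbit IgG acceptor beads.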
On the % scale 0 is the no-effect control and ±100 the full control effect; potency means the concentration at half of the fitted maximal effect; tags describe the fitted curve by direction and shape.

Row | Structure (SMILES) | Potency | activity, negative = inhibition
1 | O=C(O)c1ccc(N=NN2CCCCCC2)cc1 | inactive | –
2 | COCCNC(=O)c1cc2n(n1)CCCN(Cc1ccc(C)cc1)C2=O | inactive | –
3 | CCN(CC)CC(=O)Nc1ccc2c(c1)Nc1ccccc1CC2 | active: 17.8 µM | –
4 | Oc1c(C2=NCCNC(C(F)(F)F)=C2)ccc2ccccc12 | inactive | –
5 | Cc1cc(C)nc(SCC(=O)c2c(N)n(C)c(=O)n(C)c2=O)n1 | inconclusive: 5.62 µM [inhibitor, single point] | –
6 | Cn1c(SCc2ccccc2Cl)nc(C(F)(F)F)cc1=O | inconclusive: 100 µM [inhibitor, partial curve, poor fit] | –
7 | CCOc1ccccc1-n1c(SCC(=O)N2CCOCC2)nc2ccccc2c1=O | inactive | –
8 | Cn1c(=O)n(-c2ccc(Cl)cc2)c(=O)c2c3c(sc21)COC(C)(C)C3 | – | inactive: 0.663% [at 12.7 µM]
9 | CC(C)CCN(C)C1CCN(S(=O)(=O)c2cccc(C(F)(F)F)c2)CC1 | inconclusive: 3.16 µM [inhibitor, partial curve, poor fit] | –
10 | CC1(C)c2ssc(=S)c2-c2ccccc2N1C(=O)CSC1=NCCS1 | active: 25.1 µM | –
11 | COc1ccc(NC(=O)CC2C(=O)N(c3ccc(C)cc3)C(=O)N2CCc2ccccc2)cc1 (configuration not stated) | inactive | –
12 | COc1ccc(CC(=O)Nc2c(C(=O)Nc3ccccc3F)oc3ccccc23)cc1 | inactive | –
13 | O=C(Nc1ccc2nc3n(c(=O)c2c1)CCCC3)c1ccccc1F | inactive | –
14 | O=C(c1ccccc1)N1CCN(Cc2ccccc2)CC1 | active: 2 µM | –
15 | CC(C)CCNC(=O)c1ccc2c(Cl)c3c(nc2c1)CCC3 | inconclusive: 89.1 µM [inhibitor, single point] | –
16 | O=C1NC(=S)N/C1=C/c1cccc([N+](=O)[O-])c1 | inactive | –
17 | O=C(CCn1cccc1)N1CCc2ccccc21 | – | inconclusive: -51.8% [inhibitor]
18 | O=C(COc1coc(CN2CCc3ccccc3C2)cc1=O)Nc1ccccc1F | inconclusive: 89.1 µM [inhibitor, single point] | –
19 | COCc1cc(=O)[nH]c(N2CCN(C(=O)c3ccco3)CC2)n1 | inactive | –
20 | COc1ccc(NC(=O)CCCc2nnc3n(C)c(=O)c4sccc4n23)cc1 | inactive | –
21 | NC(=S)N/N=C/c1ccc(Br)o1 | inconclusive: 17.8 µM [inhibitor, partial curve, poor fit] | –
22 | COc1ccc(N2CCN(C(CNC(=O)C(C)(C)C)c3cccnc3)CC2)cc1 (configuration not stated) | inconclusive: 56.2 µM [inhibitor, partial curve, poor fit] | –
23 | CC(=O)Nc1ccc(SCC(=O)N(CCC#N)c2ccc(C)cc2)cc1 | inconclusive: 31.6 µM [inhibitor, single point] | –
24 | CCOc1ccc(CCNC(=O)COC(=O)C2CCN(c3ccc(C(F)(F)F)cn3)CC2)cc1OCC | inactive | –

Row | Structure (SMILES) | Potency | activity, negative = inhibition
25 | COCCCNC(=O)CCCn1c(=O)c2cccn2c2cccnc21 | inactive | –
26 | COc1cc(/C=N/NC(=O)CCc2n[nH]c(=O)[nH]c2=O)ccc1O | inconclusive: 89.1 µM [inhibitor, single point] | –
27 | COc1ccc(N2CCN(C(=O)c3ccc4c(=O)n(CC5CCCO5)c(=O)[nH]c4c3)CC2)cc1 (configuration not stated) | inconclusive: 28.2 µM [inhibitor, single point] | –
28 | CCC(C)(C)c1nnc(NC(=O)C2CCN(C(=O)c3ccco3)CC2)s1 | active: 1.78 µM | –
29 | Cc1occc1C(=O)NCc1ccco1 | inactive | –
30 | COc1ccc(-c2nc(SC(CC(=O)NCc3ccccc3)c3ccc(OC)c(OC)c3)n[nH]2)cc1 (configuration not stated) | active: 44.7 µM | –
31 | CN(C)C(=S)NC(=O)c1cccc(Cl)c1 | inconclusive: 56.2 µM [inhibitor, partial curve] | –
32 | COC(=O)c1ccc(CSc2nc3scc(-c4cccs4)c3c(=O)[nH]2)o1 | inconclusive: 28.2 µM [inhibitor, single point] | –
33 | CS(=O)c1ccccc1-c1nc(-c2ccc(Cl)cc2)no1 (configuration not stated) | inactive | –
34 | COc1ccccc1C(=O)NNC(=O)c1ccc(Cl)cc1 | inconclusive: 0.224 µM [inhibitor, partial curve, poor fit] | –
35 | O=C(Oc1ccc(C(=S)N2CCOCC2)cc1)c1ccc(F)cc1 | active: 35.5 µM | –
36 | CCCCN1C(=O)NC2NC(=O)NC21 (configuration not stated) | active: 25.1 µM | –
37 | CCOC(=O)c1[nH]c2ccccc2c1NC(=O)c1ccc(OC(C)C)cc1 | inconclusive: 15.8 µM [inhibitor, partial curve] | –
38 | CCc1cc(C(=O)Nc2nnc(C3CC3)s2)sc1C | – | inactive: 5.21% [at 12.7 µM]
39 | O=C(CN1C(=O)CCSc2ccc(S(=O)(=O)N3CCCC3)cc21)NCc1ccccc1Cl | inactive | –
40 | CN(C)c1ccc(S(=O)(=O)N2CCCCC2)cc1NC(=O)COc1ccccc1F | inconclusive: 70.8 µM [inhibitor, partial curve] | –
41 | CCn1cc(S(=O)(=O)c2ccccc2)c(=O)c2cc(C)ccc21 | inactive | –
42 | COc1cc(NC(=O)c2cc3c(=O)oc4ccc(C)cc4c3s2)cc(OC)c1OC | inactive | –
43 | COc1cccc(CN(C)C(=O)c2cc(S(=O)(=O)N3CCN(c4ccccc4)CC3)ccc2Cl)c1 | inconclusive: 8.91 µM [inhibitor, partial curve, poor fit] | –
44 | COc1ccc(C(=O)O/N=C(\N)c2ccccn2)cc1 | inconclusive: 3.16 µM [inhibitor, partial curve, poor fit] | –
45 | C=C1c2c(Cl)ccc(O)c2C(O)=C2C(=O)[C@]3(O)C(O)=C(C(N)=O)C(=O)[C@@H](N(C)C)[C@@H]3[C@@H](O)C12 (some centres not stated) | active: 7.94 µM | –
46 | COC(=O)/C=C/C(=O)N1CCN(c2cccc(Cl)c2)CC1 | inconclusive: 14.1 µM [inhibitor, single point] | –
47 | CSc1cccc(NC(=O)NNC(=O)C2CCN(S(=O)(=O)N(C)C)CC2)c1 | inactive | –
48 | NC(=O)N/N=C/c1ccc([N+](=O)[O-])o1 | inactive | –

Row | Structure (SMILES) | Potency | activity, negative = inhibition
49 | Cc1nc2nc(C)c(NS(=O)(=O)c3ccc(Cl)cc3)c(=O)n2[nH]1 | inconclusive: 89.1 µM [inhibitor, single point] | –
50 | Cn1cnc([N+](=O)[O-])c1NC(C)(C)C | inconclusive: 79.4 µM [inhibitor, single point] | –
51 | CCN(CC)C(=O)C1CCCN(C/C(C)=C/c2ccccc2)C1 (configuration not stated) | active: 15.8 µM | –
52 | CC(C)NC(=O)CN(c1cccc(Br)c1)S(C)(=O)=O | inconclusive: 89.1 µM [inhibitor, partial curve, poor fit] | –
53 | OC1(c2ccc(F)cc2)CN(c2ccccc2)C2=[N+]1CCS2 (configuration not stated) | inconclusive: 25.1 µM [inhibitor, partial curve, poor fit] | –
54 | Cc1cccc2c(N=Nc3ccc(S(=O)(=O)Nc4cccc(Cl)c4)cc3[N+](=O)[O-])c(O)[nH]c12 | inconclusive: 35.5 µM [inhibitor, partial curve] | –
55 | O=C(c1ccc2c(c1)OCO2)C1CCCN(C2CCN(CCc3ccccc3)CC2)C1 (configuration not stated) | inconclusive: 31.6 µM [inhibitor, partial curve, poor fit] | –
56 | NC(Cc1ccc(O)c([N+](=O)[O-])c1)C(=O)O (configuration not stated) | inconclusive: 7.08 µM [inhibitor, partial curve, poor fit] | –
57 | COC(=O)C1C(=O)C2=C(CC1C)NC(C)=C(C(=O)OC1CCCC1)C2c1ccc(N(C)C)cc1 (configuration not stated) | inconclusive: 3.98 µM [inhibitor, partial curve, poor fit] | –
58 | Cc1ccc(NC2CCCN(C(=O)c3ccc(-n4ccnc4)cc3)C2)cc1C (configuration not stated) | inconclusive: 39.8 µM [inhibitor, partial curve, poor fit] | –
59 | COc1ccc(C(C#N)c2ccc(=O)[nH]n2)cc1 (configuration not stated) | inconclusive: 89.1 µM [inhibitor, single point] | –
60 | Oc1ccc(-c2nccc(-c3ccc(F)cc3)n2)cc1 | inconclusive: 89.1 µM [inhibitor, single point] | –
61 | COc1cc(/C=C2\C(=O)N(C)C(=S)N2C)ccc1O | inconclusive: 2.24 µM [inhibitor, full curve, poor fit] | –
62 | COc1ccc(/C=C2\SC(=O)N(CCc3nnc(N)s3)C2=O)cc1 | – | inconclusive: -67.3% [inhibitor]
63 | CCN1C(=O)C(CC(=O)Nc2ccc(OC)cc2)N(CCCN2CCN(c3ccc(OC)cc3)CC2)C1=S (configuration not stated) | inconclusive: 31.6 µM [inhibitor, single point] | –
64 | O=c1oc2ccccc2cc1-c1csc(Nc2nc3c(F)cccc3s2)n1 | inactive | –
65 | O=C(O)c1cccc(NS(=O)(=O)c2ccc(-c3ccc(S(=O)(=O)Nc4cccc(C(=O)O)c4)cc3)cc2)c1 | active: 50.1 µM | –
66 | Cc1ccc(NC(=O)N(Cc2cn(C)c3ccccc23)C2CCCCC2)cc1C | inactive | –
67 | O=C(NCc1nnc(SCC(=O)N2CCCc3ccccc32)o1)c1ccco1 | inconclusive: 79.4 µM [inhibitor, single point] | –
68 | O=C(NC1CCCCCC1)C1CC(=O)N(Cc2ccccc2)C1 (configuration not stated) | inconclusive: 100 µM [inhibitor, single point] | –
69 | O=C(NCCc1c[nH]c2ccccc12)C(=O)c1c[nH]c2ccccc12 | inconclusive: 44.7 µM [inhibitor, partial curve, poor fit] | –
70 | Cc1cc(-c2nn(-c3ccccc3F)cc2CN2CCC(C(N)=O)CC2)c(C)s1 | inconclusive: 79.4 µM [inhibitor, single point] | –
71 | O=C(c1ccco1)N1CCC2(CC1)CCN(c1ncccn1)CC2 | – | inactive: 4.8% [at 12.7 µM]
72 | Cc1ccc(-c2csc(N=C(N)N)n2)cc1 | inconclusive: 50.1 µM [inhibitor, partial curve, poor fit] | –
